# Data published in PubChem BioAssay (Tox21).
# This list was built around the results that the source calls inconclusive (neither active nor inactive); the mix of calls is not that of the screen. Where a call stands in place of a potency, no number is given. For some of these results: Where the call is inconclusive, the potency comes from a doubtful curve fit. Calls of active or inactive are those of the source. Unless noted, calls follow the shape of the dose curve; as a rule, active = well fitted curve in the direction sought with a large enough effect in the repeat runs; inconclusive = weak or mixed curves; inactive = no such curve, though single readings can be large; an effect the other way counts as inactive or inconclusive.
# What was measured:
# [1] = qHTS assay to identify small molecule antagonists of the thyroid receptor (TR) signaling pathway (AID 743065); also: nearly all actives have a fitted effect of over 55% in size; also: potency is read from the fitted curve at half-maximal effect
# Procedure, shortened: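 Antagonism measured as loss of luciferase signal in GH3 cells stably carrying a TRE-luciferase reporter, co-treated with compound and T3 (1 nM final) for 23.5 h at 37 C. Viability was read in the same well by CellTiter-Fluor.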
# [2] = target: Estrogen receptor (Homo sapiens) (UniProt P03372); test: qHTS assay to identify small molecule antagonists of the estrogen receptor alpha (ER-alpha) signaling pathway (AID 743069; active = well fitted curve in the direction sought with a large enough effect in the signal ratio in the repeat runs, not every such curve was filed as active; inconclusive = weak or mixed curves, or effect the other way; inactive = no such curve, though single readings can be large or run the other way; the % refers to the signal ratio; also: potency is read from the fitted curve at half-maximal effect); details: HEK293 ER-alpha-UAS-bla, beta-lactamase ratio, antagonist mode; activity, negative = inhibition: at 69.4 µM (top of the series) unless noted
# Chain of UniProt P03372 (P03372 whole entry, looked up): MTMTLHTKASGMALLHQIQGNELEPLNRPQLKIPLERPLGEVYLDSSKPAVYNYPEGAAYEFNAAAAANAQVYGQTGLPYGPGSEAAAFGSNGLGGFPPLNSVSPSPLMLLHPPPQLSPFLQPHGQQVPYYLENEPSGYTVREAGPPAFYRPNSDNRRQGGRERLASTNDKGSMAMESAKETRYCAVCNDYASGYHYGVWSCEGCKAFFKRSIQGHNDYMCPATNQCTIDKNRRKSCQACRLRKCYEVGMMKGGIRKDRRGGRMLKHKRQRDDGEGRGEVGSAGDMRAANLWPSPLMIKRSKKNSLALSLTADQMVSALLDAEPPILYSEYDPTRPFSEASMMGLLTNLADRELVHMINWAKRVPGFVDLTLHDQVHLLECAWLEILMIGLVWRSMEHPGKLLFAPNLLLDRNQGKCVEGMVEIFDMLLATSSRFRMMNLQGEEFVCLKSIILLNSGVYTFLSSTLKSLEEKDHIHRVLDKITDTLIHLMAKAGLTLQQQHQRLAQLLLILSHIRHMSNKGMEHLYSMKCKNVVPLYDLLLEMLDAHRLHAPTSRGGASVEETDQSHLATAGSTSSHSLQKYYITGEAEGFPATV
# Procedure, shortened: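 Compound effects are measured against 17beta-estradiol stimulation in HEK293 cells with a UAS-controlled beta-lactamase reporter for ER-alpha. Exposure lasts 18 hr at 37C; LiveBLAzer B/G FRET substrate follows for 2 hr at room temperature.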
# [3] = target: Peroxisome proliferator-activated receptor delta (Homo sapiens) (UniProt Q03181); test: qHTS assay to identify small molecule agonists of the peroxisome proliferator-activated receptor delta (PPARd) signaling pathway (AID 743212; calls by dose curve; also: potency is read from the fitted curve at half-maximal effect); details: HEK293H PPARd-UAS-bla, beta-lactamase FRET ratio, 17 h; activation: at 62.6 µM (top of the series) unless noted
# Chain of UniProt Q03181 (Q03181 whole entry, looked up): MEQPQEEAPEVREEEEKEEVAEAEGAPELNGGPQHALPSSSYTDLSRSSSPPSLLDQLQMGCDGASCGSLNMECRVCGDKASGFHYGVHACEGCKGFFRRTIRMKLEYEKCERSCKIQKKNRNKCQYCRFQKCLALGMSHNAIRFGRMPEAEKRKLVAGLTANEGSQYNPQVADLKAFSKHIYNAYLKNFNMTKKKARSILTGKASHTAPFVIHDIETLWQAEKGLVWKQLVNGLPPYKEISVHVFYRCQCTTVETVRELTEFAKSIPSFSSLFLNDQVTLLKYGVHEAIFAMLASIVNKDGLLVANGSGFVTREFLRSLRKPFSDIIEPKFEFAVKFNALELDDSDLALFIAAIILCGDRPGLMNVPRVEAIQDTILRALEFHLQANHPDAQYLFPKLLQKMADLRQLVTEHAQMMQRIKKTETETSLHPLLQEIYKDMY
# Procedure, shortened: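 HEK293H UAS-bla reporter cells, human PPARd system; compounds delivered in DMSO after 5 h plating, then at 37 C. Beta-lactamase FRET read, 2 h RT substrate step.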
# [4] = target: Progesterone receptor (Homo sapiens) (UniProt P06401); test: qHTS assay to identify small molecule agonists of the progesterone receptor (PR) signaling pathway (AID 1346784; calls by dose curve; also: nearly all actives have a fitted effect of over 30% in size; also: potency is read from the fitted curve at half-maximal effect); details: PR-UAS-bla HEK293T, beta-lactamase FRET ratio, 16 h; activation: at 92.4 µM (top of the series) unless noted
# Chain of UniProt P06401 (P06401 whole entry, looked up): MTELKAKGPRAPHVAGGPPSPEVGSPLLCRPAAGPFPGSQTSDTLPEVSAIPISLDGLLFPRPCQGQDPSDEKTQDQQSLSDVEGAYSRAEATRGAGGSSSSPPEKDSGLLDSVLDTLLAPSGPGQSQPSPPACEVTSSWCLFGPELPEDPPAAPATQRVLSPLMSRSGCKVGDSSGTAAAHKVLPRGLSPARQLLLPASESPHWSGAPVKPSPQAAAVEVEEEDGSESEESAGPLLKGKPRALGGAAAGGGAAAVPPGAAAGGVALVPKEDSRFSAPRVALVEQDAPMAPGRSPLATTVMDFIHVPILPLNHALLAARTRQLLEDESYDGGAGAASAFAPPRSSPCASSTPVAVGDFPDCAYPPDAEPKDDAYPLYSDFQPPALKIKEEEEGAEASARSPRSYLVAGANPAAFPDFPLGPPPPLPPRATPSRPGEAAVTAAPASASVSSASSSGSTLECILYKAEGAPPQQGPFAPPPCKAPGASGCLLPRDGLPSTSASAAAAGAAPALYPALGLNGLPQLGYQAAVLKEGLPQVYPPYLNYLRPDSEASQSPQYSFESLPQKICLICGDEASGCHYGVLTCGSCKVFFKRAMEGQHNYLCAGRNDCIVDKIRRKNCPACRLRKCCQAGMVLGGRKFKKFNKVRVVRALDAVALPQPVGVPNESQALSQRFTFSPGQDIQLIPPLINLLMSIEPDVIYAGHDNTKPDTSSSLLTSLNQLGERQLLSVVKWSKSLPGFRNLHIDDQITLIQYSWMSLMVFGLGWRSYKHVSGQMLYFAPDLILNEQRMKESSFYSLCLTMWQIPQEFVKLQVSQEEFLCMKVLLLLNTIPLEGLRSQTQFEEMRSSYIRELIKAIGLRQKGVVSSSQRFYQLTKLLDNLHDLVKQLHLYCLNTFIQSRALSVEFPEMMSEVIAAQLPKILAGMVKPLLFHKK
# Procedure, shortened: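 HEK 293T PR-UAS-bla reporter cells, 2% charcoal-stripped FBS; 6 hr settle at 37C/5% CO2, compound (DMSO) 16 hr, LiveBLAzer B/G FRET substrate 2 hr RT, fluorescence intensity read.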
# [5] = target: Estrogen receptor beta (Homo sapiens) (UniProt Q92731); test: qHTS assay to identify small molecule agonists of the estrogen receptor beta (ER-beta) signaling pathway (AID 1259377; active = well fitted activation curve with a large enough effect in the signal ratio in the repeat runs, not every such curve was filed as active; inconclusive = weak or mixed curves, or effect the other way; the % refers to the signal ratio); details: ER-beta-UAS-bla HEK293T, beta-lactamase FRET ratio, 16 h; activation: at 92.4 µM (top of the series) unless noted
# Chain of UniProt Q92731 (Q92731 whole entry, looked up): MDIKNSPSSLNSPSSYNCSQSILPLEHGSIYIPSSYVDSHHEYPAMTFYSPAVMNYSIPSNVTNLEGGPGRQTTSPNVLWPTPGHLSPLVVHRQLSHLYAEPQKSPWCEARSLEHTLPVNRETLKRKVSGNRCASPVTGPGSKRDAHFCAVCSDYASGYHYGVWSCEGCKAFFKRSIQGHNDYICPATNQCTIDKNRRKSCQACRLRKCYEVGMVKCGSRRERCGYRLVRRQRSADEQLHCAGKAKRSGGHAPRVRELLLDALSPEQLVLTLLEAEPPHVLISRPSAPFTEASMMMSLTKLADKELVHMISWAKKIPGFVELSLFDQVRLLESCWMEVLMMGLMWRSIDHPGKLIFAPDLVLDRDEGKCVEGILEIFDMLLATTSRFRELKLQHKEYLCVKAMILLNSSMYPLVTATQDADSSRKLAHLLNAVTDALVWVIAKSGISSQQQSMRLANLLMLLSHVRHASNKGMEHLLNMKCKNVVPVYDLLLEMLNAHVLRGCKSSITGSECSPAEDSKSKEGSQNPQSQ
# Procedure, shortened: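 Beta-lactamase reporter readout: fluorescence of LiveBLAzer B/G FRET substrate after 2 h at room temperature, following 16 h compound treatment of ER-beta-UAS-bla HEK293T cells at 37C in 2% charcoal-stripped FBS medium.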
# [6] = target: Androgen receptor (Homo sapiens) (UniProt P10275); test: qHTS assay to identify small molecule antagonists of the androgen receptor (AR) signaling pathway (AID 743035; active = well fitted inhibition curve with a large enough effect in the signal ratio in the repeat runs, not every such curve was filed as active; inconclusive = weak or mixed curves, or effect the other way; inactive = no such curve, though single readings can be large or run the other way; the % refers to the signal ratio); details: HEK293 AR-UAS-bla, R1881-stimulated, beta-lactamase FRET, 16 h; activity change, negative = inhibition: at 58.5 µM (top of the series) unless noted
# Chain of UniProt P10275 (P10275 whole entry, looked up): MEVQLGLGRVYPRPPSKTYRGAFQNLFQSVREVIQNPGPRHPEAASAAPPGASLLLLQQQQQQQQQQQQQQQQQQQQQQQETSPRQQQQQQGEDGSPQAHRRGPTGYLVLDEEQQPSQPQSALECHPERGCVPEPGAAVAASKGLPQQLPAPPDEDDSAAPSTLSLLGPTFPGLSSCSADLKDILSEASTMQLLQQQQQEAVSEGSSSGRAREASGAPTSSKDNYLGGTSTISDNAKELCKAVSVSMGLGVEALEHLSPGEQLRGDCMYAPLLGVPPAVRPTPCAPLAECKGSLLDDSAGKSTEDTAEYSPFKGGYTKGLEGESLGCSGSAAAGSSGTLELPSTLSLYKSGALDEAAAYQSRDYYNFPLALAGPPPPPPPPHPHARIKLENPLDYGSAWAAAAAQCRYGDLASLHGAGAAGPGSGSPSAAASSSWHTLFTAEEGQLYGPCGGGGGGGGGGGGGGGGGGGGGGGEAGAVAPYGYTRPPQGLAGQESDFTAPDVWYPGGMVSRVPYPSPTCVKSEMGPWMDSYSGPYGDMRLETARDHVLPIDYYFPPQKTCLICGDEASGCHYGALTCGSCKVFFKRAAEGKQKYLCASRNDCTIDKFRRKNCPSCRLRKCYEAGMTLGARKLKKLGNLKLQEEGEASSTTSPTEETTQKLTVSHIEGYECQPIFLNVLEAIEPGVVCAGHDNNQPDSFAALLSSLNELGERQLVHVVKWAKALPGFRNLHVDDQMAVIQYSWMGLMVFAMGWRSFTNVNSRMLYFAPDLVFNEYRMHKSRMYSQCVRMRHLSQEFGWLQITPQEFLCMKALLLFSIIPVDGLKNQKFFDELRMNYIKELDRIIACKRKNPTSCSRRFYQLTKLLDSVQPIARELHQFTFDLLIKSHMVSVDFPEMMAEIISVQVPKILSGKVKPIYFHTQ
# Procedure, shortened: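 Cell line: GeneBLAzer AR-UAS-bla GripTite (HEK293). Stimulus: R1881 added after compound. Exposure: 16 h, 37C, 5% CO2. Readout: LiveBLAzer B/G FRET fluorescence after 2 h at room temperature.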
# [7] = qHTS assay to identify small molecule antagonists of the estrogen related receptor signaling pathway with the pleiotropic PPARgamma coactivator (PGC) from Tox21 10K library (AID 1224841; call rule not given here; also: actives are mostly falling curves and most rising ones were filed inactive; nearly all actives have a fitted effect of over 50% in size; also: potency is read from the fitted curve at half-maximal effect)
# Procedure, shortened: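 Compound exposure ran 18 hours at 37 C in PGC/ERR cells (2,000/well) that had first rested 6 hours in a 37 C/5% CO2 incubator. Luciferase activity was then detected with One-Glo after a 30-minute room-temperature step.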
# [8] = qHTS RealTime-Glo MT Cell Viability Assay in HEK293 cells - 40 hour (AID 1224874); details: RealTime-Glo luminescence; max response: hits give low values; also: potency is read from the fitted curve at half-maximal effect; nearly all actives have a fitted effect of over 50% in size
# Procedure, shortened: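 qHTS format; HEK293 cells with NanoLuc/prosubstrate reagent, 37 C/5% CO2 for 5 h pre-dosing; compounds 23 nL in DMSO; luminescence at each time point reflects viable cells.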
# [9] = target: Nuclear receptor subfamily 1 group I member 3 (Homo sapiens) (UniProt Q14994); test: qHTS assay to identify small molecule agonists of the constitutive androstane receptor (CAR) signaling pathway (AID 1224839); also: nearly all actives have a fitted effect of over 15% in size; also: potency is read from the fitted curve at half-maximal effect;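 as to activation: HepG2 cells stably carrying human CAR and a CYP2B6 luciferase reporter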
# Chain of UniProt Q14994 (Q14994 whole entry, looked up): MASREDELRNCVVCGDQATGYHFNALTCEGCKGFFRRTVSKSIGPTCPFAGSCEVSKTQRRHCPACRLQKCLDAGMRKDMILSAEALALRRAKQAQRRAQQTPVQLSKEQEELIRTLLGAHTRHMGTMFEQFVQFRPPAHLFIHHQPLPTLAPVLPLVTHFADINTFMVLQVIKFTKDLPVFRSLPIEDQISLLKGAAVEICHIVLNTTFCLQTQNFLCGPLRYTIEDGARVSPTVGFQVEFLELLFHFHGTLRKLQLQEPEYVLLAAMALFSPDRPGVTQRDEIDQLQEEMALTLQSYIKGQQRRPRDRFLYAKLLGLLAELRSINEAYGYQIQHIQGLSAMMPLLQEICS
# Procedure, shortened: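 Luminescence read-out (ONE-Glo, 30 min, room temperature) from double-stable HepG2-CYP2B6-hCAR cells exposed 24 h to 15-point compound series in presence of 0.75 uM PK11195 final.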
# [10] = target: Cytochrome P450 3A4 (Homo sapiens) (UniProt P08684); test: Cytochrome P450 Family 3 Subfamily A Member 4 (CYP3A4) small molecule antagonists: luciferase reporter qHTS assay (AID 1671201); also: nearly all actives have a fitted effect of over 50% in size; also: potency is read from the fitted curve at half-maximal effect
# Chain of UniProt P08684 (P08684 whole entry, looked up): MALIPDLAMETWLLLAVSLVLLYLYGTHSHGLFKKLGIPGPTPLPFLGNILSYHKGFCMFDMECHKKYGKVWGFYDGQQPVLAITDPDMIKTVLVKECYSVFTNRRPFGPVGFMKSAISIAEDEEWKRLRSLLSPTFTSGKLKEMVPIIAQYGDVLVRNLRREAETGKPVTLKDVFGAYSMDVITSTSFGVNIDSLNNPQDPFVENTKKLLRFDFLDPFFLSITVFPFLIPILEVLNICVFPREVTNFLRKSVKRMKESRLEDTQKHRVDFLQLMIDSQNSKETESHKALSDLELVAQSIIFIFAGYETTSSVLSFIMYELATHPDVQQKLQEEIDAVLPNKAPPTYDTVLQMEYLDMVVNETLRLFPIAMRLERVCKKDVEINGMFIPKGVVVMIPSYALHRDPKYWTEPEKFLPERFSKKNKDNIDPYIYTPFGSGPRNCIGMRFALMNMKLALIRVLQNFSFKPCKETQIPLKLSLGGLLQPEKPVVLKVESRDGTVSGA
# Procedure, shortened: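 Luminescent readout (RLU) proportional to CYP3A4 activity, from luciferin generated off a proluciferin substrate. Enzyme–substrate mix plus compound 10 min at room temp, NADPH regeneration 1 h, detection reagent 20 min.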
# [11] = qHTS assay to identify small molecule agonists of H2AX - cell viability counter screen (AID 1224847; calls by dose curve; also: nearly all actives have a fitted effect of over 30% in size; also: potency is read from the fitted curve at half-maximal effect;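 as to activity change, negative = cytotoxicity: wild-type CHO-K1 cells; top concentration of the series differs between compounds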)
# Procedure, shortened: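 CHO-K1 wt, 1000 cells/well, o/n 37C; cpds 15 conc, 3 h 37C, 0.76% DMSO; CellTiter-Glo, 30 min RT, luminescence.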
# [12] = qHTS assay to identify small molecule agonists of the peroxisome proliferator-activated receptor delta (PPARd) signaling pathway - cell viability counter screen (AID 743211); details: PPARd-bla HEK293H viability, CellTiter-Glo luminescence, 17 h; activity change, negative = cytotoxicity: at 62.6 µM (top of the series); also: nearly all actives have a fitted effect of over 55% in size
# Procedure, shortened: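 Read-out: CellTiter-Glo luminescence, 30 min RT, measured in the same wells as the beta-lactamase reporter. Cells: GeneBLAzer PPAR delta UAS-bla HEK293H, 3000 cells/well, compound exposure 17 h at 37C.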
# [13] = A CellTox Green Cytotoxicity Assay to monitor cytotoxicity in HEK293 cells - 8 hour (AID 1224884); also: nearly all actives have a fitted effect of over 35% in size; also: potency is read from the fitted curve at half-maximal effect
# Procedure, shortened: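 Each value comes from one timepoint of a single continuous run in which HEK293 cells with CellTox Green were exposed to compound for up to 40 h at 37 C, dye fluorescence rising with cell death.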
# [14] = qHTS assay to identify small molecule antagonists of the estrogen related receptor signaling pathway with the pleiotropic PPARgamma coactivator (PGC) from Tox21 10K library - cell viability counter screen (AID 1224840; active = well fitted cell-killing curve with a large enough effect in the repeat runs, not every such curve was filed as active; inconclusive = weak or mixed curves, or effect the other way; inactive = no such curve, though single readings can be large or run the other way; also: nearly all actives have a fitted effect of over 40% in size)
# Procedure, shortened: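 Compounds in DMSO, alongside positive and negative controls, were pinned onto PGC/ERR cells (2,000 per well). Exposure lasted 17.5 hours at 37 C, followed by a 30-minute CellTiter-Fluor incubation and fluorescence reading.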
# [15] = qHTS assay to identify small molecule agonists of the TGF-beta/Smad signaling pathway (AID 1346859; active = well fitted activation curve with a large enough effect in the signal ratio in the repeat runs, not every such curve was filed as active; inconclusive = weak or mixed curves; the % refers to the signal ratio)
# Procedure, shortened: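 Read-out: fluorescence at 460 and 530 nm (405 nm excitation) after a 2 hr room-temperature incubation with beta-lactamase FRET substrate. SBE-bla HEK 293T cells had been treated with test compounds for 5 hr at 37 C.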
# [16] = Caspase-3/7 induction in CHO-K1 cells by small molecules, qHTS cell viability counter screen (AID 1346979); also: nearly all actives have a fitted effect of over 35% in size; also: potency is read from the fitted curve at half-maximal effect
# Procedure, shortened: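 CHO-K1 wt, 1,500 cells/well; 5hr pre-incubation 37C/5% CO2; compound pin transfer (DMSO); 16hr exposure; CellTiter-Fluor added, 1hr, fluorescence read.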
# [17] = target: Acetylcholinesterase (Homo sapiens) (UniProt P22303); test: Acetylcholinesterase (AChE) small molecule antagonists: fluorescence cell-based qHTS assay (AID 1347398; calls by dose curve; also: nearly all actives have a fitted effect of over 50% in size); details: Potency: AChE activity
# Chain of UniProt P22303 (P22303 whole entry, looked up): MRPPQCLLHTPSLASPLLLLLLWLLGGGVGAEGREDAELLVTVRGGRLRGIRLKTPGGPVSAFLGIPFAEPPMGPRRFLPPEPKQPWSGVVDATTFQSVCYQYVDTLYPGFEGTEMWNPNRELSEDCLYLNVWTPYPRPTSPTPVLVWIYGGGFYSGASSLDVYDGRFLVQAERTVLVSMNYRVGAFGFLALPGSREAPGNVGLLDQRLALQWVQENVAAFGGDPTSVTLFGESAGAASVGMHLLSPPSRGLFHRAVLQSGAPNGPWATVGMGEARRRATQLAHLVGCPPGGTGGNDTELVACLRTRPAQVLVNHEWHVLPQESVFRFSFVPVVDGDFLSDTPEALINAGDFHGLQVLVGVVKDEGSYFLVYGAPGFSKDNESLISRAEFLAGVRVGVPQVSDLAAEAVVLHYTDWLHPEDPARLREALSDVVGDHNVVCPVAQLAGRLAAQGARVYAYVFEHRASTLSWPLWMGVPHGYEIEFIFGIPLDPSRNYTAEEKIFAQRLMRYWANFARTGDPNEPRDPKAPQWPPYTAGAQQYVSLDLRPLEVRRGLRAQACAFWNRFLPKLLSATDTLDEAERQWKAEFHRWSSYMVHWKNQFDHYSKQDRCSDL
# Procedure, shortened: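 Fluorimetric cell-based assay: intact SH-SY5Y cells, 30 min compound preincubation at 37 C, acetylthiocholine substrate with thiol probe Thiolite Green, 40 min RT development, fluorescence 490/520 nm.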
# Tags tell the direction and shape of the fitted curve or compound fluorescence and quenching.
structure (smiles),measurement,setting,value
O=C(O)C1C(C(=O)O)C2(Cl)C(Cl)=C(Cl)C1(Cl)C2(Cl)Cl (stereo not given),Potency,[1],inactive
same,Potency,[2],"inconclusive: 0.0012 µM [activator, full curve, poor fit]"
same,Potency,[3],"inconclusive: 86.5 µM [rising, single point]"
same,Potency,[4],inactive
CCCCCl,Potency,[4],inactive
Cc1nc(N(C)C)nc(OC(=O)N(C)C)c1C,Potency,[2],inactive
same,Potency,[5],inactive
O=C(Cl)/C=C/C(=O)Cl,"activity change, negative = inhibition",[6],inconclusive: 0.486% [at 78.9 µM]
same,Potency,[7],"inconclusive: 69.6 µM [falling, single point]"
same,Potency,[8],"inconclusive: 55.8 µM [rising, single point]"
c1cc[n+]2c(c1)-c1cccc[n+]1CC2,Potency,[9],"inconclusive: 23.7 µM [activator, partial curve]"
same,Potency,[8],"inconclusive: 21.3 µM [cytotoxic, partial curve, poor fit]"
same,Potency,[4],inactive
same,Potency,[10],"inconclusive: 17.4 µM [inhibitor, partial curve]"
N#Cc1c(Cl)cccc1Cl,Potency,[3],inactive
same,Potency,[7],inactive
S=C=S,Potency,[11],inactive
OCCSCSCCO,Potency,[12],inactive
same,Potency,[13],inactive
CNC(C)(C)Cc1ccccc1,Potency,[14],inactive
COc1ccc(CN2CCNCC2)c(OC)c1OC,Potency,[15],inactive
same,Potency,[16],"inconclusive: 29.8 µM [cytotoxic, partial curve]"
CC(C)(N)Cc1ccc(Cl)cc1,Potency,[1],"inconclusive: 29.8 µM [inhibitor, partial curve]"
same,Potency,[13],inactive
same,Potency,[4],"inconclusive: 0.668 µM [rising, partial curve, poor fit]"
CCCCCCCCSC(=O)Oc1cc(Cl)nnc1-c1ccccc1,Potency,[1],"inconclusive: 68.6 µM [inhibitor, single point]"
same,Potency,[2],"inconclusive: 11 µM [activator, full curve]"
same,Potency,[3],inactive
same,Potency,[11],"inconclusive: 56.6 µM [cytotoxic, partial curve, poor fit]"
same,Potency,[16],inconclusive: 68.6 µM [cytotoxic]
COc1cc(OC)nc(NC(=O)NS(=O)(=O)c2ncccc2C(=O)N(C)C)n1,Potency,[16],inactive
O=NN(CCO)CCO,Potency,[6],inactive
same,Potency,[14],inactive
same,Potency,[10],inactive
CCCN(CCC)C(=O)Cc1c(-c2ccc(Cl)cc2)nc2ccc(Cl)cn12,Potency,[1],"inconclusive: 13.3 µM [inhibitor, full curve]"
same,Potency,[2],"inconclusive: 26.8 µM [fluorescent, partial curve, poor fit]"
same,Potency,[9],"inconclusive: 29.8 µM [activator, partial curve]"
same,Potency,[8],active: 5.35 µM
same,Potency,[16],active: 33.5 µM
COP(=S)(OC)Oc1ccc(S(N)(=O)=O)cc1,Potency,[1],inactive
same,Potency,[9],inactive
same,Potency,[13],"inconclusive: 26.8 µM [activator, single point]"
CCOP(=O)(O)C(N)=O,Potency,[11],inactive
same,Potency,[17],inactive
C1CS1,Potency,[14],inactive
Clc1cccc(N2CCNCC2)c1,Potency,[1],"inconclusive: 23.7 µM [inhibitor, partial curve]"
same,Potency,[14],inactive
O=S(=O)(c1ccccc1)c1ccccc1,Potency,[3],inactive
same,Potency,[5],inactive
CCCCOP(=O)(CCCC)OCCCC,Potency,[9],"inconclusive: 24.3 µM [activator, partial curve, poor fit]"
same,Potency,[7],"inconclusive: 10.9 µM [falling, partial curve, poor fit]"
same,Potency,[10],"inconclusive: 25.2 µM [inhibitor, partial curve]"
ClC1(Cl)C2(Cl)C3(Cl)C4(Cl)C(Cl)(Cl)C5(Cl)C3(Cl)C1(Cl)C5(Cl)C24Cl (stereo not given),"activity change, negative = inhibition",[6],inconclusive: 5.14%
same,Potency,[2],inactive
same,Potency,[17],inactive
